Experimental data as given in the supplement of paper PMC4967469.

Columns and labels:
Assay in all cases: Viability of human cancer cell lines after 72 h of drug (GDSC screen)
Y-39983 = compound: C[C@@H](N)c1ccc(C(=O)Nc2ccnc3[nH]ccc23)cc1 [Y-39983]; details: top dose 20 µM; top dose inferred
Experimental: (§1)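 Human cancer cell lines in 384-well plates, medium with 10% serum, drug for 72 h over a 256-fold dose range (nine 2-fold or five 4-fold steps up to the top dose). Adherent lines were fixed and stained with the nucleic acid dye Syto60, suspension lines read with resazurin; signal relative to control wells, capped at 0 and 100%. One two-parameter sigmoid per drug and line, fitted in a mixed model over all curves with the slope shared within a line.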

Epothilone B = compound: C/C(=C\c1csc(C)n1)[C@@H]1C[C@@H]2O[C@]2(C)CCC[C@H](C)[C@H](O)[C@@H](C)C(=O)C(C)(C)[C@@H](O)CC(=O)O1 [Epothilone B]; details: top dose 0.032 µM; top dose inferred
Experimental: as §1

AZD-0530 = compound: CN1CCN(CCOc2cc(OC3CCOCC3)c3c(Nc4c(Cl)ccc5c4OCO5)ncnc3c2)CC1 [AZD-0530]; details: top dose 2 µM
Experimental: as §1

Pyrimethamine = compound: CCc1nc(N)nc(N)c1-c1ccc(Cl)cc1 [Pyrimethamine]; details: top dose 20 µM; top dose inferred
Experimental: as §1

PHA-793887 = compound: CC(C)CC(=O)Nc1n[nH]c2c1CN(C(=O)C1CCN(C)CC1)C2(C)C [PHA-793887]; details: top dose 10.24 µM
Experimental: as §1

PLX4720 = compound: CCCS(=O)(=O)Nc1ccc(F)c(C(=O)c2c[nH]c3ncc(Cl)cc23)c1F [PLX4720]; details: top dose 10 µM
Experimental: as §1

TPCA-1 = compound: NC(=O)Nc1sc(-c2ccc(F)cc2)cc1C(N)=O [TPCA-1]; details: top dose 20 µM
Experimental: as §1

[1] = screen: GDSC drug entry 1371, top dose inferred

Cell Line | AUC (Y-39983) | IC50 (Y-39983) | AUC (Epothilone B) | IC50 (Epothilone B) | AUC (AZD-0530) | IC50 (AZD-0530) | AUC (Pyrimethamine) | IC50 (Pyrimethamine) | AUC (PHA-793887) | IC50 (PHA-793887) | AUC (PLX4720; screen: GDSC drug entry 1036) | IC50 (PLX4720; screen: GDSC drug entry 1036) | AUC (PLX4720; [1]) | IC50 (PLX4720; [1]) | AUC (TPCA-1) | IC50 (TPCA-1)
KCL-22 (chronic myeloid leukaemia, suspension) | 0.908 | 19.8 µM | 0.465 | 0.00163 µM | 0.729 | 0.492 µM | 0.836 | 10.3 µM | 0.34 | 0.25 µM | 0.991 | > 10 µM | 0.972 | > 10 µM | 0.806 | 8.27 µM
KE-37 (lymphoblastic leukaemia, suspension) | 0.86 | 10.8 µM | 0.5 | 0.002 µM | 0.994 | > 2 µM | 0.858 | 10.6 µM | 0.448 | 0.479 µM | 0.858 | 5.31 µM | 0.987 | > 10 µM | 0.442 | 0.901 µM
KELLY (neuroblastoma, adherent) | 0.805 | 9.01 µM | 0.651 | 0.00502 µM | 0.952 | > 2 µM | 0.906 | > 20 µM | 0.961 | > 10.2 µM | 0.987 | > 10 µM | 0.988 | > 10 µM | 0.653 | 3.18 µM
KG-1 (acute myeloid leukaemia, suspension) | 0.89 | 18.7 µM | 0.672 | 0.0057 µM | 0.99 | > 2 µM | 0.986 | > 20 µM | 0.903 | > 10.2 µM | 0.978 | > 10 µM | 0.931 | > 10 µM | 0.401 | 0.691 µM
KGN (ovary, adherent) | 0.917 | > 20 µM | 0.311 | 0.000521 µM | 0.77 | 0.923 µM | 0.896 | > 20 µM | 0.905 | > 10.2 µM | 0.923 | > 10 µM | 0.929 | > 10 µM | 0.713 | 5.77 µM
KINGS-1 (glioma, adherent) | 0.951 | > 20 µM | 0.837 | > 0.032 µM | 0.864 | > 2 µM | 0.915 | > 20 µM | 0.927 | > 10.2 µM | 0.979 | > 10 µM | 0.966 | > 10 µM | 0.9 | > 20 µM
KM12 (large intestine, adherent) | 0.957 | > 20 µM | 0.541 | 0.00262 µM | 0.91 | > 2 µM | 0.611 | 2.59 µM | 0.862 | 10 µM | 0.984 | > 10 µM | 0.984 | > 10 µM | 0.733 | 6.15 µM
KM-H2 (Hodgkin lymphoma, suspension) | 0.954 | > 20 µM | 0.691 | 0.00621 µM | 0.993 | > 2 µM | 0.844 | 11.2 µM | 0.828 | 5.06 µM | 0.97 | > 10 µM | 0.991 | > 10 µM | 0.879 | 15.1 µM
KNS-42 (glioma, adherent) | 0.964 | > 20 µM | 0.572 | 0.00327 µM | 0.892 | > 2 µM | 0.984 | > 20 µM | 0.98 | > 10.2 µM | 0.983 | > 10 µM | 0.982 | > 10 µM | 0.919 | > 20 µM
KP-N-YN (neuroblastoma, adherent) | 0.928 | > 20 µM | 0.91 | > 0.032 µM | 0.959 | > 2 µM | 0.986 | > 20 µM | 0.965 | > 10.2 µM | 0.923 | > 10 µM | 0.956 | > 10 µM | 0.935 | > 20 µM
KS-1 (glioma, adherent) | 0.851 | > 20 µM | 0.414 | 0.0011 µM | 0.801 | 1.27 µM | 0.914 | > 20 µM | 0.814 | 7.38 µM | 0.979 | > 10 µM | 0.976 | > 10 µM | 0.823 | 15.8 µM
KU812 (chronic myeloid leukaemia, suspension) | 0.316 | 0.404 µM | 0.556 | 0.0028 µM | 0.935 | > 2 µM | 0.863 | 14.9 µM | 0.447 | 0.466 µM | 0.925 | > 10 µM | 0.963 | > 10 µM | 0.045 | < 0.0781 µM
KURAMOCHI (ovary, adherent) | 0.959 | > 20 µM | 0.668 | 0.00637 µM | 0.897 | > 2 µM | 0.899 | > 20 µM | 0.871 | > 10.2 µM | 0.984 | > 10 µM | 0.982 | > 10 µM | 0.957 | > 20 µM
KY821 (leukaemia, suspension) | 0.971 | > 20 µM | 0.982 | > 0.032 µM | 0.988 | > 2 µM | 0.984 | > 20 µM | 0.753 | 3.04 µM | 0.992 | > 10 µM | 0.991 | > 10 µM | 0.913 | > 20 µM
KYM-1 (rhabdomyosarcoma, adherent) | 0.99 | > 20 µM | 0.665 | 0.00532 µM | 0.99 | > 2 µM | 0.989 | > 20 µM | 0.622 | 1.31 µM | 0.985 | > 10 µM | 0.987 | > 10 µM | 0.98 | > 20 µM
L-428 (Hodgkin lymphoma, suspension) | 0.993 | > 20 µM | 0.907 | > 0.032 µM | 0.992 | > 2 µM | 0.982 | > 20 µM | 0.978 | > 10.2 µM | 0.99 | > 10 µM | 0.992 | > 10 µM | 0.825 | 10.1 µM
L-540 (Hodgkin lymphoma, suspension) | 0.932 | > 20 µM | 0.776 | 0.0113 µM | 0.981 | > 2 µM | 0.858 | 13.7 µM | 0.902 | > 10.2 µM | 0.99 | > 10 µM | 0.955 | > 10 µM | 0.842 | 11.8 µM

A lower IC50 marks a more sensitive line; a fit beyond the top or the lowest dose is shown as a bound at that dose. AUC sums up the same curve from the lowest dose to the 256-fold higher top dose; it is 1 without any effect and falls as sensitivity rises. For some assays here: Where the top dose is marked as inferred, it comes from the curve model; the source does not state it. For some assays here: Where an entry number is given, a second screen of the drug exists; the two often differ.
